# Measured values taken from patent publication US9677112B2 (priority 2012, dated 2017).
# Like-named read-outs stand apart in the source and are kept apart here. The name of at least one read-out is uncertain.
# Target: BlaC (Mycobacterium tuberculosis, UniProt P9WKD3)
# Sequence (P9WKD3 35-307 limits assumed): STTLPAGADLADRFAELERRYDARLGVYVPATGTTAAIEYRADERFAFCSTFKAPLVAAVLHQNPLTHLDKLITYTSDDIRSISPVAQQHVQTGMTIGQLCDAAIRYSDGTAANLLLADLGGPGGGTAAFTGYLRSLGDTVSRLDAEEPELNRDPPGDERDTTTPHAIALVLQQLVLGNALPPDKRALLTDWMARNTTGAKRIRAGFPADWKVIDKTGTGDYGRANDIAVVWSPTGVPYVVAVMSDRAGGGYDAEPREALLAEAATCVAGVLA
SMILES,BlaC kcat/Km,BlaC kcat/Km (pH 6.6)
"O=C(Cc1ccccc1)N[C@@H]1C(=O)N2C(C(=O)O)=C(COc3ccc4ccc(=O)oc4c3)CS[C@H]12 [CDC-1, (6R,7R)-8-Oxo-3-((2-oxo-2H-chromen-7-yloxy)methyl)-7-(2-phenylacetamido)-5-thia-1-azabicyclo[4.2.0]oct-2-ene-2-carboxylic acid]",2.1×10^5 s^−1M^−1,–
"CCN1CCN(C(=O)N[C@@H](C(=O)N[C@@H]2C(=O)N3C(C(=O)O)=C(COc4ccc5ccc(=O)oc5c4)CS[C@H]23)c2ccccc2)C(=O)C1=O [CDC-3, (6R,7R)-7-((R)-2-(4-Ethyl-2,3-dioxopiperazine-1-carboxamido)-2-phenylacetamido)-8-oxo-3-((2-oxo-2H-chromen-7-yloxy)methyl)-5-thia-1-azabicyclo[4.2.0]oct-2-ene-2-carboxylic acid]",8.7×10^4 s^−1M^−1,–
"CC(=O)N[C@@H]1C(=O)N2C(C(=O)O)=C(COc3ccc4ccc(=O)oc4c3)CS[C@H]12 [CDC-4, (6R,7R)-7-Acetamido-8-oxo-3-(((2-oxo-2H-chromen-7-yl)oxy)methyl)-5-thia-1-azabicyclo[4.2.0]oct-2-ene-2-carboxylic acid]",6.8×10^4 s^−1M^−1,–
"CO[C@@]1(NC(C)=O)C(=O)N2C(C(=O)O)=C(COc3ccc4ccc(=O)oc4c3)CS[C@@H]21 [CDC-5, (6R,7S)-7-Acetamido-7-methoxy-8-oxo-3-(((2-oxo-2H-chromen-7-yl)oxy)methyl)-5-thia-1-azabicyclo[4.2.0]oct-2-ene-2-carboxylic acid]",3.7 × 10^3 s^−1M^−1,–
"CCO[C@@]1(NC(=O)Cc2ccccc2)C(=O)N2C(C(=O)O)=C(COc3ccc4ccc(=O)oc4c3)CS[C@@H]21 [CDC-OEt, (6R,7S)-7-Ethoxy-8-oxo-3-((2-oxo-2H-chromen-7-yloxy)methyl)-7-(2-phenylacetamido)-5-thia-1-azabicyclo[4.2.0]oct-2-ene-2-carboxylic acid]",1.9×10^2 s^−1M^−1,–
"CO[C@@]1(NC(=O)Cc2ccccc2)C(=O)N2C(C(=O)O)=C(COc3ccc4ccc(=O)oc4c3)CS[C@@H]21 [CDC-OMe, (6R,7S)-7-Methoxy-8-oxo-3-((2-oxo-2H-chromen-7-yloxy)methyl)-7-(2-phenylacetamido)-5-thia-1-azabicyclo[4.2.0]oct-2-ene-2-carboxylic acid]",2.1×10^4 s^−1M^−1,–
"COc1ccc(-c2c3ccc(=O)cc-3oc3cc(OCc4ccc(OCC5=C(C(=O)O)N6C(=O)[C@@H](NC(=O)Cc7ccccc7)[C@H]6SC5)cc4)ccc23)c(C)c1 [CDG-1, (6R,7R)-3-((4-(((9-(4-Methoxy-2-methylphenyl)-3-oxo-3H-xanthen-6-yl)oxy)methyl)phenoxy)methyl)-8-oxo-7-(2-phenylacetamido)-5-thia-1-azabicyclo[4.2.0]oct-2-ene-2-carboxylic acid]",–,(4.8 × 10^5) s^−1M^−1
"COc1ccc(-c2c3ccc(=O)cc-3oc3cc(OCc4ccc(OCC5=C(C(=O)O)N6C(=O)[C@](NC(=O)Cc7ccccc7)(OC)[C@H]6SC5)cc4)ccc23)c(C)c1 [CDG-OMe, (6R,7S)-7-Methoxy-3-((4-(((9-(4-methoxy-2-methylphenyl)-3-oxo-3H-xanthen-6-yl)oxy)methyl)phenoxy)methyl)-8-oxo-7-(2-phenylacetamido)-5-thia-1-azabicyclo[4.2.0]oct-2-ene-2-carboxylic acid]",2.4×10^5 s^−1M^−1,(1.7 × 10^5) s^−1M^−1
